PubChem BioAssay AID2675 (National Center for Advancing Translational Sciences (NCATS), 2010)
In all, about 280,000 compounds went through this assay and about 100 (0.036%) were called active. This list was built around the results that the source calls inconclusive (neither active nor inactive); the mix of calls is not that of the screen. Calls come from the whole dose curve; as a rule, active = well fitted inhibition curve with a large enough effect in the signal ratio, with a control signal flat (not every such curve was filed as active); inconclusive = small, poorly fitted or top-dose-only effect, or effect the other way, or a change in a side signal; inactive = no such curve, though single readings can be large or run the other way; the % refers to the signal ratio. Potencies beside an inconclusive call are fits to weak or partial responses and may not hold up. “Side channel” marks fits to a control or component signal instead of the main read-out.
% is set by controls: 0 for no effect and ±100 for the full control effect; potency is the fitted concentration of half-maximal effect; tags give direction and shape of the fitted curve or compound fluorescence and quenching.

What follows are compounds tested against Muscleblind-like protein 1 (Homo sapiens) (UniProt Q9NR56) (assay: qHTS Assay for Inhibitors of MBNL1-poly(CUG) RNA binding). Conditions: TR-FRET MBNL1-His/biotin-(CUG)12 binding, 665/545 ratio; activity change, negative = inhibition: at 57.5 µM (top of the series).
Chain of UniProt Q9NR56 (Q9NR56 whole entry, looked up): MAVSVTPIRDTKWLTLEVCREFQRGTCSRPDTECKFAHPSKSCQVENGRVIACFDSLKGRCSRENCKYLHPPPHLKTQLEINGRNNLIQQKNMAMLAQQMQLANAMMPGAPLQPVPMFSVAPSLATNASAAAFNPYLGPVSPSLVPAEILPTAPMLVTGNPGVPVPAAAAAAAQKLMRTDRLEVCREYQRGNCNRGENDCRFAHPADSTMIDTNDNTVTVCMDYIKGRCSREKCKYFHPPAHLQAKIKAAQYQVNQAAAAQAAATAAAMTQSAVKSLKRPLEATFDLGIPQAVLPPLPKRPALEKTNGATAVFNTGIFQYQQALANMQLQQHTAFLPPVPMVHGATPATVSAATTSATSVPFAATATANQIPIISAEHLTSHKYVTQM
Summary of the method: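 His-tagged MBNL1 binding to biotinylated (CUG)12 RNA was measured by TR-FRET using terbium anti-His antibody (0.055 ng/ul final) and streptavidin-XL665 (5 nM final). Compounds were titrated 92 nM to 58 uM; 60 min at room temperature.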
With `Clc1ccc(-n2cc(COCc3ccccc3)nn2)cc1` the “activity change, negative = inhibition” value was inactive: -1.95%.
For `CN(C)c1ccc(/C=C/c2cc[n+]([O-])cc2)cc1`, the Potency was inconclusive: 14.1 µM [quencher, side channel, partial curve].
With `COc1ccc(Cc2noc(CN3CCCC(OCc4ccccn4)C3)n2)cc1OC` (stereo unspecified) the “activity change, negative = inhibition” value was inactive: -2.4%.
`CCN(C(=O)c1cc2c(=O)n3ccccc3nc2s1)C1CCCCC1` was tested, and the Potency was inconclusive: 14.1 µM [quencher, side channel, partial curve].
With `O=C(O)c1nn(Cc2nc3ccccc3o2)c(=O)c2ccccc12` the Potency was inconclusive: 22.4 µM [quencher, side channel, single point].
With `N#C/C(=C/c1ccc(N2CCCCC2)o1)C(=O)Nc1ccc2ccccc2c1` the Potency was inconclusive: 39.8 µM [quencher, single point].
With `CC(CCN1CCN(c2ccccc2)CC1)c1ccccc1` (stereo unspecified) the “activity change, negative = inhibition” value was inactive: -5.06%.
`COc1cc(/C=N/NC(=O)Cc2c[nH]c3ccccc23)cc(OC)c1OC` was tested, and the Potency was inconclusive: 20 µM [quencher, side channel, partial curve].
With `CCOC(=O)c1sc2ncn(CC(=O)N(CC)CC)c(=O)c2c1C` the Potency was inconclusive: 28.2 µM [quencher, side channel, single point].
In the case of `Cn1c(SCc2ccc(F)cc2)nnc1-c1ccncc1`, the Potency is reported as inconclusive: 3.55 µM [quencher, side channel, single point].
With `CCCCn1nnnc1NCc1ccc(N2CCCC2)cc1` the “activity change, negative = inhibition” value was inactive: 1.27%.
For `N=c1c(C(=O)NC2CCCC2)cc2c(=O)n3ccccc3nc2n1CCN1CCOCC1`, the Potency was inconclusive: 4.47 µM [quencher, side channel, full curve].
For `COC(=O)c1ccc(N2CCc3ccccc32)c([N+](=O)[O-])c1`, the Potency was inconclusive: 14.1 µM [quencher, side channel, partial curve].
In the case of `CCN1CCN(c2nc3c(C)cccn3c(=O)c2C=C(C#N)C#N)CC1`, the Potency is reported as inconclusive: 25.1 µM [quencher, side channel, partial curve].
`Cc1ccccc1N1C(=O)c2cccc3c(N(C)CCO)ccc(c23)C1=O` was tested, and the Potency was inconclusive: 11.2 µM [quencher, side channel, partial curve].
`O=C(CCn1cnc2ccccc21)N/N=C/c1ccccc1O` was tested, and the “activity change, negative = inhibition” value was inactive: 21.2%.
In the case of `O=C1CCCC(O)=C1N=Nc1c(Cl)cc(C(F)(F)F)cc1Cl`, the Potency is reported as inconclusive: 14.1 µM [quencher, side channel, partial curve].
For `CC(C)CCSc1nc2c(c(=O)[nH]c(=O)n2C)n1CCc1ccccc1`, the Potency was inconclusive: 0.112 µM [fluorescent, side channel, full curve].
In the case of `COc1ccc(/C=C\C(=O)NCC(=O)N/N=C/c2ccc(O)cc2O)cc1`, the Potency is reported as inconclusive: 17.8 µM [quencher, side channel, single point].
In the case of `COc1ccc(N=C2SC(CC(=O)Nc3ccc(F)cc3)C(=O)N2Cc2ccco2)cc1` (stereo unspecified), the Potency is reported as inconclusive: 39.8 µM [fluorescent, side channel, partial curve, poor fit].
With `O=C(c1ccc(Cl)c(Cl)c1)N1CCC(=O)N(C(COCc2cccc(Cl)c2)Cc2ccccc2)CC1` (stereo unspecified) the Potency was inconclusive: 5.62 µM [inhibitor, full curve, poor fit].
With `C/C(CC(=O)Nc1c(C)cc(C)cc1C)=N\NC(=O)c1cnccn1` the Potency was inconclusive: 10 µM [quencher, side channel, partial curve, poor fit].
`COC(=O)C1=COC(C)C2CN3CCc4c([nH]c5ccccc45)C3CC12` (stereo unspecified) was tested, and the Potency was inconclusive: 12.6 µM [quencher, side channel, partial curve].
With `Cc1[nH]n(-c2ccccc2)c(=O)c1/C=N\NC(=O)C1COc2ccccc2O1` (stereo unspecified) the “activity change, negative = inhibition” value was inactive: -11.9%.
`O=[N+]([O-])c1ccc(S(=O)(=O)N2CCN=C2SCc2cccnc2)cc1` was tested, and the Potency was inconclusive: 12.6 µM [quencher, side channel, partial curve].
In the case of `O=C(CN1C(=O)S/C(=C\c2cccs2)C1=O)Nc1ccc(O)cc1C(=O)O`, the Potency is reported as inconclusive: 14.1 µM [quencher, side channel, partial curve].
With `Fc1cccc(Cl)c1CNCc1cccnc1` the “activity change, negative = inhibition” value was inactive: -9.4%.
`O=[n+]1c2c(n([O-])c3cc(F)c(F)cc31)CCCC2` was tested, and the Potency was inconclusive: 5.62 µM [quencher, side channel, partial curve].
`CCOC(=O)N1CCC(N(CCN(C)C)C(=S)Nc2cccc(Cl)c2)CC1` was tested, and the “activity change, negative = inhibition” value was inactive: 5.25%.
In the case of `COc1cc(/C=C/C(=O)OCC(=O)NCc2ccco2)ccc1OCC#N`, the Potency is reported as inconclusive: 15.8 µM [quencher, side channel, partial curve].
`Cc1cc(N2C(=O)C(O)=C(C(=O)c3cc4ccccc4o3)C2c2ccc([N+](=O)[O-])cc2)no1` (stereo unspecified) was tested, and the “activity change, negative = inhibition” value was inactive: 7.39%.
For `O=C(NC(=S)NCc1cccnc1)c1ccc([N+](=O)[O-])cc1`, the Potency was inconclusive: 10 µM [quencher, side channel, partial curve].
With `CC(=O)Nc1ccc(N/C=C/C(=O)c2ccco2)cc1` the Potency was inconclusive: 14.1 µM [quencher, side channel, partial curve].
In the case of `NNC(=O)c1ccc(COc2ccc3c(c2)CCC3)cc1`, the Potency is reported as inconclusive: 1.78 µM [fluorescent, side channel, partial curve].
`Cn1cnnc1Sc1ccc(C(=O)NCCC23CC4CC(CC(C4)C2)C3)cc1[N+](=O)[O-]` was tested, and the Potency was inconclusive: 15.8 µM [quencher, side channel, partial curve].
With `O=C(COC(=O)c1ccc([N+](=O)[O-])o1)Nc1nc2ccccc2s1` the Potency was inconclusive: 11.2 µM [quencher, side channel, partial curve].
For `O=C(NNC1=NCCN1Cc1ccccc1)c1cccc(C(F)(F)F)c1`, the “activity change, negative = inhibition” value was inactive: -6.82%.
`O=C(CCN1CCN(c2ccccc2)CC1)c1ccc(Cl)cc1` was tested, and the “activity change, negative = inhibition” value was inactive: -1%.
With `O=C(CN1C(=O)c2ccc([N+](=O)[O-])cc2C1=O)NCc1ccco1` the Potency was inconclusive: 5.01 µM [quencher, side channel, full curve].
For `CCc1sc2nc(SCC(=O)Nc3cc(C)on3)n(-c3cccc(OC)c3)c(=O)c2c1C`, the “activity change, negative = inhibition” value was inactive: 16.9%.
`COc1ccc(C(=O)Nc2ccc3c(c2)C(=O)c2ccccc2C3=O)cc1OC` was tested, and the Potency was inconclusive: 20 µM [quencher, side channel, single point].
With `Cc1cccc(CCNC(=O)CN(C)S(=O)(=O)c2ccc3c(c2)c(=O)n(C)c(=O)n3C)c1` the Potency was inconclusive: 0.794 µM [fluorescent, side channel, single point].
`Cc1ccc(Sc2ncnc3onc(C)c23)cc1` was tested, and the “activity change, negative = inhibition” value was inactive: 0.207%.
With `Cc1ccsc1/C=C/C1=NCCCN1C` the Potency was inconclusive: 12.6 µM [quencher, side channel, partial curve].
For `COc1ccc(C2CC(=O)N3C(=C2C#N)SCC3(O)c2ccccc2)cc1` (stereo unspecified), the Potency was inconclusive: 22.4 µM [quencher, side channel, partial curve].
`O=[N+]([O-])c1ccc(S(=O)(=O)Nc2nc(-c3ccccc3)cs2)cc1` was tested, and the “activity change, negative = inhibition” value was inactive: 12.5%.
In the case of `CC(NC(=O)C(=O)NCCN1CCN(C(=O)c2ccc([N+](=O)[O-])cc2)CC1)c1ccccc1` (stereo unspecified), the Potency is reported as inconclusive: 7.94 µM [quencher, side channel, partial curve].
With `NC(=O)CC(NC(=O)Cc1ccc(Cl)cc1)c1ccc(NCCCN2CCCC2=O)c([N+](=O)[O-])c1` (stereo unspecified) the Potency was inconclusive: 10 µM [quencher, side channel, partial curve].
With `COc1ccccc1N1CCN(C(c2cc3cc(C)ccc3[nH]c2=O)c2nnnn2C2CCCC2)CC1` (stereo unspecified) the “activity change, negative = inhibition” value was inactive: 5.31%.
`NS(=O)(=O)c1ccc(-c2ccc(/C=C3\C(=O)Nc4ccccc43)o2)cc1` was tested, and the Potency was inconclusive: 12.6 µM [quencher, side channel, partial curve].
For `NS(=O)(=O)c1ccc(NC(=O)/C=C/c2ccco2)cc1`, the Potency was inconclusive: 35.5 µM [quencher, side channel, single point].
`Fc1cccc(/C=N/Nc2ccc3ccccc3n2)c1` was tested, and the “activity change, negative = inhibition” value was inactive: 0.537%.
`C/C(=N/O)c1c(O)c(C)c(-c2ccccc2)n(-c2ccccc2)c1=O` was tested, and the “activity change, negative = inhibition” value was inactive: -5.41%.
`N#C/C(=C\c1ccco1)C(=O)NCc1ccccc1` was tested, and the Potency was inconclusive: 28.2 µM [quencher, side channel, single point].
With `CCOc1cc(N2CCOCC2)c(OCC)cc1NC(C)C(=O)N1CCN(CC)CC1` (stereo unspecified) the Potency was inconclusive: 17.8 µM [quencher, side channel, single point].
`Cc1ccc(S(=O)(=O)Cc2ccccc2Cl)cc1` was tested, and the Potency was inconclusive: 20 µM [fluorescent, side channel, partial curve, poor fit].
In the case of `N#C/C(=C\c1c(N2CCOCC2)nc2ccccn2c1=O)C(=O)NC1CCS(=O)(=O)C1` (stereo unspecified), the Potency is reported as inconclusive: 3.16 µM [quencher, side channel, full curve].
With `O=C(CCS(=O)(=O)c1cccc2nsnc12)N1CCN(C(=O)c2ccco2)CC1` the Potency was inconclusive: 14.1 µM [quencher, side channel, partial curve].
For `O=C(c1ccc(N2CCOCC2)c([N+](=O)[O-])c1)N1CCN(S(=O)(=O)c2cccs2)CC1`, the Potency was inconclusive: 20 µM [quencher, side channel, single point].
`O=C(NC(Nc1ncc(S(=O)(=O)c2ccc([N+](=O)[O-])cc2)s1)(C(F)(F)F)C(F)(F)F)c1ccc(Cl)cc1` was tested, and the Potency was inconclusive: 14.1 µM [quencher, partial curve].
In the case of `Cc1ccc(NC(=O)c2ccccc2[N+](=O)[O-])nc1`, the Potency is reported as inconclusive: 39.8 µM [quencher, side channel, single point].
